Data: patent US20240158442A1, “MULTIFUNCTIONAL POLYPEPTIDE AND APPLICATION THEREOF IN FIELD OF MEDICINES” (Wuhan Innerse Pharmaceutical Inc., priority 2021, published 2024)
Ends that are not written are not given here.

Assay: Dose-effect experiment, body weight of MCAO model animals
Details: for Lost Weight (D 0 body weight − D 2 body weight): 3 mg/kg i.v., model control 48.92 ± 5.78
Method: Measurement time: the body weight was measured at least twice during the accommodation, and each batch of rats were weighed once on the day before the surgery and on the day of dissection to calculate the amount of drug administered and the anesthetic applied; the body weight was measured twice a week after the surgery.
The effect of test substance on the weight of model animals: cerebral ischemia-reperfusion is an acute injury model, wherein the weight of experimental animals will drop dramatically after MCAO modeling. Thus, the weight of experimental animals is one of the most basic sensitive parameters to comprehensively reflect the health status of animals. In this experiment, the body weight of all the animals was monitored from first day after the surgery, and the results of animal's body weight change are shown in Table 11. There was no difference in the weight of the animals in each group before modeling.

For “YGRKKRRQRRRKLSSIESDV [Example S1, nerinetide]”, the “Lost Weight (D 0 body weight − D 2 body weight)” value was 48.22 ± 8.23 g, the “Lost Weight (D 0 body weight − D 2 body weight)” value (listed as Positive drug) was 48.22 ± 8.23 g and the “influence on body weight” value (MCAO rats, 1 day after surgery, S1 3 mg/kg, S5 0.6-15 mg/kg i.v.) was “no significant influence on rat's body weight”.
